Measurements published in paper PMC10341166.
No constants are given. Whether binding was seen depends on the method and setting. In cells and extracts the contact can be indirect. Some binding calls cover weakened binding; strength is not graded here. Sequences can lack the tags named with a protein.

By UniProt entry, the sequences of proteins in these tests, tags left out.
UniProt P16277: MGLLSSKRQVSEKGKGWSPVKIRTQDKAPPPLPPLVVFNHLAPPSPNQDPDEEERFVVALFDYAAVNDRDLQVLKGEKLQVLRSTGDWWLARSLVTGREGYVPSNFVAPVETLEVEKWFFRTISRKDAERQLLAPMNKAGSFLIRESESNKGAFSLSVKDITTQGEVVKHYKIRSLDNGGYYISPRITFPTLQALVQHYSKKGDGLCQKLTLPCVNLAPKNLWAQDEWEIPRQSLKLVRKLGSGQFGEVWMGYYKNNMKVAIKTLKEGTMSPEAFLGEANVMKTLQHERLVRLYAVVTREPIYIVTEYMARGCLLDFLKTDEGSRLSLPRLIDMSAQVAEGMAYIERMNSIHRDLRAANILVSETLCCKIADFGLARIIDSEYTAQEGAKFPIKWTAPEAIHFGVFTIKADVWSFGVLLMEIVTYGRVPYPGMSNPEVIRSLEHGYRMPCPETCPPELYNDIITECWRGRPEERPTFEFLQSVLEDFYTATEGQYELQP
UniProt P08103: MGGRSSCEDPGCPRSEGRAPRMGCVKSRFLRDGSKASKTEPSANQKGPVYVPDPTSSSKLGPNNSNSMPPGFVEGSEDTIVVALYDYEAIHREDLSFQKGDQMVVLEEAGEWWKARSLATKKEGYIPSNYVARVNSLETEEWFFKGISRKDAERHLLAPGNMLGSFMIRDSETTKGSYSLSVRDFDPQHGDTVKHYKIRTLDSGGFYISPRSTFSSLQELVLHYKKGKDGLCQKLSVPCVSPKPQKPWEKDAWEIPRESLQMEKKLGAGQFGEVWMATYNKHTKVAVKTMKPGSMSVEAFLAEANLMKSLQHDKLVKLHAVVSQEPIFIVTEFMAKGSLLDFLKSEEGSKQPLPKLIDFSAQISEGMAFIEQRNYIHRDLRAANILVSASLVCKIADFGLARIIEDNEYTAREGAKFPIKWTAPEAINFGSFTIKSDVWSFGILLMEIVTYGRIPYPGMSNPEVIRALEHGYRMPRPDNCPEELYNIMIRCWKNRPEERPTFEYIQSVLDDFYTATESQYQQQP

Key:
Test in all cases: co-IP; F9 L32T2 cells transiently co-transfected with HA-Cldn6 constructs and SFK-FLAG vectors; whole cell extracts, Immunoprecipitation Kit Protein G; mouse IgG as negative control; immunoblot
[1] = molecular target: T1, HA-Cldn6Δ1/2C (mouse CLDN6, AA 1-201) (mouse) (UniProt Q9Z262)
T1 sequence: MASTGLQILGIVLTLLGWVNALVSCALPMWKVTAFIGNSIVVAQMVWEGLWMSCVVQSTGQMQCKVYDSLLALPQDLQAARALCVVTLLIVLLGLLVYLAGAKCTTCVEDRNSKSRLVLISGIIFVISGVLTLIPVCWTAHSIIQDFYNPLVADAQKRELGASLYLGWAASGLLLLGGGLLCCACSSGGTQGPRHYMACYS

[2] = molecular target: T2, HA-Cldn6 (mouse CLDN6, full length, AA 1-219) (mouse) (UniProt Q9Z262)
T2 sequence: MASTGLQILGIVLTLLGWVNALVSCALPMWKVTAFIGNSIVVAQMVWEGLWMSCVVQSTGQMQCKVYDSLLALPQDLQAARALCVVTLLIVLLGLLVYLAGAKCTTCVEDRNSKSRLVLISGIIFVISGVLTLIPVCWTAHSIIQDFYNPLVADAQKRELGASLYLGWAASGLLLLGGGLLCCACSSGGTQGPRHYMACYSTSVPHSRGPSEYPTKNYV

[3] = molecular target: T3, HA-Cldn6ΔC (mouse CLDN6, AA 1-183) (mouse) (UniProt Q9Z262)
T3 sequence: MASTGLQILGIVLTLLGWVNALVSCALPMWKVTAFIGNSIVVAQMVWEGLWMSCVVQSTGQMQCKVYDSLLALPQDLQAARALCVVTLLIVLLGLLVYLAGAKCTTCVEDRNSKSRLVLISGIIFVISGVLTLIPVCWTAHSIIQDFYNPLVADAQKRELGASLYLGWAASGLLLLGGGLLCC

binding [1] | binding [2] | binding [3] | Substance
binds | binds | no binding | Blk-FLAG (mouse BLK) (from UniProt P16277 1-499) (enzyme)
– | no binding | – | Fgr-FLAG (mouse FGR) (from UniProt P14234 1-517) (enzyme)
– | no binding | – | Hck-FLAG (mouse HCK) (from UniProt P08103 1-524) (enzyme)
